Source: US20100210602A1, “PhoU (PerF), A P[…] INVOLVED IN [sequence] FORMATION AND TOLERANCE TO MULTIPLE ANTIBIOTICS AND [sequence] AS A DRUG TARGET FOR [sequence] BACTERIA” (priority 2006, published 2010)
Where two headings read alike, the source gives them in different places.

Key:
W3110 = assay type: cell-based; settings: ampicillin 100 ug/ml, Fe3+ 250 uM
W3110ΔphoU = assay type: cell-based; settings: ampicillin 100 ug/ml

CC1(C)S[C@@H]2[C@H](NC(=O)[C@H](N)c3ccccc3)C(=O)N2[C@H]1C(=O)O [Ampicillin, ampicillin]
CFU after ampicillin exposure (W3110; Pi 0.01 mM): 5 × 10^8 CFU | CFU after ampicillin exposure (W3110; Pi 2 mM): 5 × 10^8 CFU | CFU after ampicillin exposure (W3110ΔphoU; MOPS, N/A (no Pi, no Fe3+)): 1 × 10^8 CFU | CFU after ampicillin exposure (W3110ΔphoU; Pi 0.01 mM): 1 × 10^7 CFU
